Test results published in paper PMC6443190, “Regulation of anthocyanin accumulation via MYB75/HAT1/TPL-mediated transcriptional repression” (PLoS Genetics, 2019).
No constants are given. Whether binding was seen depends on the method and setting. Tags and fused reporters may be left off the sequences shown.

Assays:
Assay in all cases: two-hybrid; directed assay; yeast AH109 with pairs of pGADT7 and pGBKT7 plasmids; growth on SD-Leu/-Trp/-Ade/-His
[1] = target: T1, MYB90 (yeast two-hybrid fusion) (Arabidopsis thaliana) (UniProt Q9ZTC3)
T1 sequence: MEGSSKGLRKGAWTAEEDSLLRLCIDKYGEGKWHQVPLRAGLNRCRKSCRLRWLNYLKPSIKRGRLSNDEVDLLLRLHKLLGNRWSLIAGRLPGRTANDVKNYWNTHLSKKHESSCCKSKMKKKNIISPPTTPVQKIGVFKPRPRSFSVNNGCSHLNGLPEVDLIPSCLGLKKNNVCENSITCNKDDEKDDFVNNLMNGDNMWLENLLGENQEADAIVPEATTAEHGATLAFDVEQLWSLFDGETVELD

[2] = target: T2, TPR2 (yeast two-hybrid fusion) (Arabidopsis thaliana) (UniProt Q9LRZ0)
T2 sequence: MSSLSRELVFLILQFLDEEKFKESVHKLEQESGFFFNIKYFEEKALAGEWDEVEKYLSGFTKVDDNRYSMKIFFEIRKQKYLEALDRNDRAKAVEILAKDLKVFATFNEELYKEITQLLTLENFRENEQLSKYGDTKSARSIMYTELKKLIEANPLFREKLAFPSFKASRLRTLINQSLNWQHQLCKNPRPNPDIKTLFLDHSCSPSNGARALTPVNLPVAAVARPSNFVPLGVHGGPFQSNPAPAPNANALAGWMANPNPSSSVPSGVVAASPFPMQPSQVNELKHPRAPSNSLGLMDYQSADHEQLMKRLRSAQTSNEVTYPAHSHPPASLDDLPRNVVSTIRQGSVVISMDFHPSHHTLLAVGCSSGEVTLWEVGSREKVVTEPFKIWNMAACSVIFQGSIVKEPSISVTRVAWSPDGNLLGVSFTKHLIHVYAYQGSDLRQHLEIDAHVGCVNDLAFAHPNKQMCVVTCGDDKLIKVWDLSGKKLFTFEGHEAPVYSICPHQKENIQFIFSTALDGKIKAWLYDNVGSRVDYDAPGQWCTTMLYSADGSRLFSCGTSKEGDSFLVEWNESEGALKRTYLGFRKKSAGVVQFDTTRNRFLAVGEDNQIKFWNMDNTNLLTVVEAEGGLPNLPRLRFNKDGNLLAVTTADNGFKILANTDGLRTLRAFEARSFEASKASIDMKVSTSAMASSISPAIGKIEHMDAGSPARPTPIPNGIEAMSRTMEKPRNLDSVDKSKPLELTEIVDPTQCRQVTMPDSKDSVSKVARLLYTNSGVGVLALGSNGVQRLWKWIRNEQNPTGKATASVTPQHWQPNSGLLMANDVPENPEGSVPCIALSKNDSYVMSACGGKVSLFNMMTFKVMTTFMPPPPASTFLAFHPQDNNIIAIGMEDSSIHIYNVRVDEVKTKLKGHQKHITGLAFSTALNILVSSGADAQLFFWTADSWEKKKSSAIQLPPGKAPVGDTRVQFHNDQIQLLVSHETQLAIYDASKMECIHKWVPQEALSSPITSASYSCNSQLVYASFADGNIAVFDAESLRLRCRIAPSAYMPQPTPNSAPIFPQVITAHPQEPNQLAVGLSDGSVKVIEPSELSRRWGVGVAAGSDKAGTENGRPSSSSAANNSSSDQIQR

[3] = target: T3, TPR4 (yeast two-hybrid fusion) (Arabidopsis thaliana) (UniProt Q27GK7)
T3 sequence: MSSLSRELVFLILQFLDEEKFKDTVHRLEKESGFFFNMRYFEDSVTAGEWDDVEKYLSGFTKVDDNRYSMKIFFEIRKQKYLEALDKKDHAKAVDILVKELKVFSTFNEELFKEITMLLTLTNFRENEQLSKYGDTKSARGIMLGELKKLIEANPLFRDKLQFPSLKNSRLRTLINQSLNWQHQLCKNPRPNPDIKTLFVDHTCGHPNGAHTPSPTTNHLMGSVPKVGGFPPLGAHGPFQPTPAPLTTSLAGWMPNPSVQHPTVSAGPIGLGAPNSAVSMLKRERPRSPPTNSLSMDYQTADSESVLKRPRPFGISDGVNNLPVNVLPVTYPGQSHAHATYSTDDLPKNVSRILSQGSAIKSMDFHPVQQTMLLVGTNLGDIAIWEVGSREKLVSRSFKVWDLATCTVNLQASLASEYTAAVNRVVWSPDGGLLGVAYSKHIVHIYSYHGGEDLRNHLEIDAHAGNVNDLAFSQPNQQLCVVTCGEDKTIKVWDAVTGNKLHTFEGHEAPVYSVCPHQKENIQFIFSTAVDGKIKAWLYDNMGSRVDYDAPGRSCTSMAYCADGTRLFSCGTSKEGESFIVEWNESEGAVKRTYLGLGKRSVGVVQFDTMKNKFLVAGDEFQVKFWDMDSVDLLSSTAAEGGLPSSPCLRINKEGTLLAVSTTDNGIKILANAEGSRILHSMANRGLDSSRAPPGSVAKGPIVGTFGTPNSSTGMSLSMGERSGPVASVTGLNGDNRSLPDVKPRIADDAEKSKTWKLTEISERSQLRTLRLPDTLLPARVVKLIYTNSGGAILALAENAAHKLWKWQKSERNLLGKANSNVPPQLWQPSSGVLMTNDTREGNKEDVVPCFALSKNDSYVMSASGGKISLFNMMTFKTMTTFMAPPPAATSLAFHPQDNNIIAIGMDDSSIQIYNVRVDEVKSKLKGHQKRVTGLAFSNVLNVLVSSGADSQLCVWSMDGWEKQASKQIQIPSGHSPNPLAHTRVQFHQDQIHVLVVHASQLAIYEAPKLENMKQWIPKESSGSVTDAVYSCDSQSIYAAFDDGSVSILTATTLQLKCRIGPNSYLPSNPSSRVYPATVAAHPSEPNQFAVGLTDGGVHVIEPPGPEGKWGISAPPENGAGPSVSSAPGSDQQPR

binding [1]: no binding | binding [2]: no binding | binding [3]: no binding
B1: HAT1 (pGADT7 fusion, yeast two-hybrid) (protein, UniProt P46600 1-282)
chain: MMMGKEDLGLSLSLGFAQNHPLQLNLKPTSSPMSNLQMFPWNQTLVSSSDQQKQQFLRKIDVNSLPTTVDLEEETGVSSPNSTISSTVSGKRRSTEREGTSGGGCGDDLDITLDRSSSRGTSDEEEDYGGETCRKKLRLSKDQSAVLEDTFKEHNTLNPKQKLALAKKLGLTARQVEVWFQNRRARTKLKQTEVDCEYLKRCVEKLTEENRRLEKEAAELRALKLSPRLYGQMSPPTTLLMCPSCERVAGPSSSNHNQRSVSLSPWLQMAHGSTFDVMRPRS
